Reference: the supplement of paper PMC3334620
Over roughly 33,000 sequences, “E-score (-0.5 to 0.5)” has its median near -0.056; the highest 2% begin near 0.38. The list shows a part of the results.

biological target: Stb4 (UniProt P50104); experiment: PBM E-score (8-mer binding enrichment) (E-score (-0.5 to 0.5)); higher = stronger / more preferred TF binding; most listed sequences are background and not binding sites; details: protein concentration: 200 nM; construct: GST-DNA-binding domain
Procedure, shortened: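 Using PURExpress in vitro transcription/translation, GST-tagged yeast transcription factors were made in full-length or DNA-binding-domain form. These were applied at about 100-200 nM to double-stranded universal all-10-mer Agilent arrays, and bound protein was detected with fluorescent anti-GST. Scans were normalised with masliner before the Universal PBM Analysis Suite assigned E-scores to ungapped eight-base words pooled with their reverse complements.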

Row | Sequence | PBM E-score
1 | CATTGACA | -0.128
2 | AGTATATG | -0.0546
3 | CGCCCGGC | 0.145
4 | AGGGCGTG | -0.0353
5 | CCCTCGTA | -0.114
6 | ACACCCGA | 0.445
7 | GGAGTACC | 0.00873
8 | ATGAAATC | -0.191
9 | AAGATTCC | 0.0966
10 | GCTGAACC | 0.0509
11 | CGTGTATC | 0.0759
12 | CCCCCTAC | -0.261
13 | CCAATGAA | -0.201
14 | ATATAGTC | -0.00409
15 | ACCACTGA | -0.244
16 | CCCCTAAC | -0.134
17 | CCCGGCGA | 0.215
18 | CATCACAG | -0.229
19 | CTATCTTC | -0.107
20 | GCAAACGA | -0.0381
21 | ACGCGAGA | -0.158
22 | GAAGCGGA | 0.285
23 | AGGACTAT | -0.161
24 | GAGCAAAC | -0.0271
25 | AACGCCAT | -0.115

Row | Sequence | PBM E-score
26 | CCAACGCG | -0.0591
27 | ATGACCAT | -0.119
28 | CTGCATGA | -0.246
29 | AACGACGT | -0.166
30 | CACGAAGG | -0.107
31 | ATGACGGG | 0.167
32 | ATTACATG | -0.0589
33 | CATGGAAG | 0.00865
34 | AAAGTAGC | 0.0242
35 | AAGCAATC | -0.181
36 | ACTCTGTA | -0.162
37 | GTTCGAAA | -0.0541
38 | AAGTTTTA | -0.075
39 | ATAGGTTC | 0.00038
40 | AACCCCCT | -0.408
41 | TACAGTAA | -0.218
42 | CTTATGAA | -0.114
43 | CGTTATCA | -0.0712
44 | AGCTTCAA | -0.181
45 | TAGTGTCA | -0.101
46 | AGAATCCT | -0.221
47 | AAGACAGC | -0.171
48 | ATTCACCC | 0.127
49 | ATTTTAAC | 0.0635
50 | TCCCGGAA | 0.407

Row | Sequence | PBM E-score
51 | GGAATTAC | 0.158
52 | CGAGGCAC | 0.153
53 | CCGTAATA | 0.127
54 | CTCGTTTC | -0.0481
55 | CGAGAGAA | 0.00907
56 | TACGTTGA | -0.225
57 | CGCTCTCA | -0.138
58 | AATAGGAT | 0.113
59 | GTGGGGTA | 0.132
60 | GAGGTTGC | -0.0274
61 | AGAACTCC | -0.153
62 | TGTTCGAA | -0.0825
63 | AACATGAA | -0.167
64 | ACTCGTTG | -0.283
65 | GAAATCGA | 0.1
66 | CCCTTCGA | -0.0805
67 | TTAAGAAA | -0.226
68 | AAAAATAA | 0.029
69 | CCCGGTCC | 0.289
70 | CACGTGGG | -0.335
71 | AGAAAATA | 0.0963
72 | GCTCAAGC | -0.293
73 | GGCCCATA | -0.0435
74 | GGACGCTA | -0.0466
75 | AAGCTTGC | -0.209

Row | Sequence | PBM E-score
76 | ACCGCGAC | -0.00545
77 | CCGTAGAA | 0.018
78 | AGGTAGAG | -0.197
79 | CGGCAGTA | 0.3
80 | ACAGCGAC | -0.325
81 | ATTCCCGG | 0.372
82 | AGAGAACC | -0.105
83 | ACTTGGGC | -0.0574
84 | CCTAAGAG | -0.194
85 | TGGCCCCA | -0.198
86 | ACCTGCCT | -0.0436
87 | ATACGGAA | 0.36
88 | CTAGATAG | -0.257
89 | AGTCACGC | -0.162
90 | CCGATCGA | 0.244
91 | GATAGAAA | -0.026
92 | TCCCAGGA | -0.284
93 | GAATTCCA | 0.125
94 | AAATCTTC | 0.1
95 | AGGCAGAG | -0.295
96 | GGTGGTCA | 0.0759
97 | ACTCCACC | -0.177
98 | ATCTTTTC | -0.0605
99 | TGTGGAAA | -0.0202
100 | AACTATTC | 0.0635

Row | Sequence | PBM E-score
101 | AGAGAACA | -0.00898
102 | ACATAGCC | 0.0789
103 | CCCGCTGA | 0.0217
104 | ATTCCCGC | 0.295
105 | CCCTATTC | 0.144
106 | AGGAGCCG | 0.219
107 | CACATTCC | 0.147
108 | CCCATAGG | -0.153
109 | GTATCAAA | -0.15
110 | CCTTGGCA | -0.295
111 | ACGGTTGC | -0.0857
112 | GTTATCGA | 0.131
113 | ACTTAAAA | 0.0509
114 | ATGCGCGC | 0.104
115 | CGGCTATC | 0.368
116 | CTGGCCAA | -0.0932
117 | AAGGGGCC | -0.0705
118 | CACCTCGC | 0.0165
119 | AGTTATTG | -0.173
120 | CAAGCGTA | -0.284
121 | CCCTGCAA | -0.122
122 | CTTAACAC | -0.217
123 | AAGCCCTA | -0.135
124 | ACGGGAGT | 0.225
125 | TCCACACA | -0.0692

Row | Sequence | PBM E-score
126 | AGATCGAC | -0.0199
127 | AAATTCGA | -0.136
128 | GGCATTGA | 0.0593
129 | GCCAAGGC | -0.305
130 | CAGTGTCG | 0.0321
131 | CTAAAAAG | -0.0967
132 | ATGCACTG | -0.144
133 | AATATTTA | 0.0278
134 | AGTTACAG | -0.235
135 | ACACGGTC | -0.034
136 | CACGATAG | -0.157
137 | CCAAATGA | -0.0861
138 | AGCGGAAT | 0.141
139 | CGAACGCC | 0.0631
140 | GATCATTA | 0.102
141 | GCAGTCAA | -0.207
142 | AGCTGGGC | -0.153
143 | GTCGTAAA | 0.0948
144 | AAAGTGTG | -0.194
145 | AAAACTCC | 0.088
146 | CCAACACC | -0.0103
147 | ACCAAAGA | -0.00898
148 | TAGCAATA | -0.0964
149 | ATTGGGAG | -0.108
150 | CACTACTC | 0.0355

Row | Sequence | PBM E-score
151 | AGAACAAT | 0.0308
152 | CGTATAGC | 0.0237
153 | ATCGGATC | 0.43
154 | AGGCGTTA | -0.0936
155 | CAATCCAA | -0.242
156 | ACGTGTAC | -0.186
157 | AGTATAAT | 0.0745
158 | CTCGCCGA | 0.271
159 | TACTACCA | -0.107
160 | CAAAGATA | -0.111
161 | CGTCCAGA | -0.113
162 | GCATATCC | 0.101
163 | CCGGACAC | 0.193
164 | ATCTTGCA | -0.048
165 | GAAGCACC | -0.0377
166 | CCGTGCAG | 0.117
167 | GACTACTC | 0.0421
168 | AGATACTG | -0.169
169 | ACTCTCAC | -0.168
170 | CATAATAA | -0.101
171 | AATTGCGT | 0.153
172 | AATATTGC | 0.166
173 | CCTGAATA | -0.107
174 | CACACAGC | -0.102
175 | AGCGCTCA | -0.191

Row | Sequence | PBM E-score
176 | CCTTGTCA | -0.291
177 | AAATGTGA | -0.175
178 | AATGACGA | -0.113
179 | GAACGCGA | -0.0119
180 | CGAATTCG | 0.203
181 | ATATGTAC | -0.0125
182 | CGCGCACC | -0.0167
183 | AGAGCAGA | -0.159
184 | ACCGTATA | -0.145
185 | CAGAGGCA | -0.134
186 | AGACGGAT | 0.29
187 | AAGCCGCT | -0.00212
188 | ATAGAAAA | -0.156
189 | GTAATTAA | -0.0124
190 | CTAACGTA | -0.201
191 | GGTATCTA | 0.129
192 | AGAGTGAC | -0.115
193 | TCATATGA | 0.0352
194 | ACGCTCTC | -0.119
195 | GATATAAA | -0.00092
196 | GATTATGC | 0.253
197 | ACGGCAAC | 0.204
198 | AAGAACCT | -0.0619
199 | CCCGAGCG | 0.43
200 | CCTAATGA | -0.159

Row | Sequence | PBM E-score
201 | CTATGTCA | -0.177
202 | ACTATTGG | -0.123
203 | CGTTGAGA | -0.133
204 | AGGCTTTC | -0.123
205 | ACAACTTG | -0.261
206 | ACCCTTGC | -0.114
207 | ACACCACA | -0.0857
208 | CAGGTCAG | 0.00829
209 | GCAGGTCA | -0.0711
210 | AACCGGGT | 0.339
211 | ACACAGAA | -0.117
212 | GGAAACGA | 0.0279
213 | AAGCAGCC | 0.0101
214 | AGAATTAA | -0.00134
215 | TCCGCCGA | 0.403
216 | AATGCCAT | -0.0911
217 | AACCGGTT | 0.305
218 | AACAGAAC | -0.138
219 | CACCTTAC | -0.213
